In patent publication US8486398B2, “Anticoagulant antidotes comprising antibodies that bind dabigatran and/or related compounds” (Boehringer Ingelheim International GmbH, priority 2010, dated 2013):

Key:
Format in all cases: biochemical
[1] = test system: dabigatran anticoagulant activity; experiment: Neutralization of dabigatran anticoagulant activity, thrombin clotting time in human plasma; settings: 30 nM dabigatran, 1.5-2 U/mL thrombin
Method: Two series of experiments were performed to show the effect of the antibodies against dabigatran anticoagulant activity in vitro. The four polyclonal antibodies were received in the laboratory and further tested in human plasma. This was tested in the functional assay, the thrombin clotting time.
The thrombin clotting time is performed as follows. […] It is used within 2 hrs of being prepared.

[2] = test system: dabigatran anticoagulant activity; experiment: Neutralization of dabigatran anticoagulant activity, thrombin clotting time in human whole blood; settings: 30 nM dabigatran, 1.5-2 U/mL thrombin
Method: FIG. 7: A mouse monoclonal antibody (Clone 22) reverses the anticoagulant effect of dabigatran in human plasma and in human whole blood. Increasing concentrations of mouse antibody were added to human plasma or whole blood that had been preincubated with 30 nM dabigatran. The assay was initiated by the addition of 1.5-2 U/mL of thrombin and clotting time was measured. 100% dabigatran activity was defined as the difference in clotting time in the presence and absence of compound.
The mouse monoclonal antibody clone 22 was tested for its ability to neutralize dabigatran anticoagulant activity in human plasma in the thrombin clotting time assay outlined in Example II. […] (FIG. 8).

[3] = test system: dabigatran acylglucuronide; experiment: Neutralization of dabigatran acylglucuronide, thrombin clotting time in human plasma; settings: 7 nM dabigatran acylglucuronide, 0.4 U/mL thrombin
Method: FIG. 9: A mouse monoclonal antibody (Clone 22) reverses the anticoagulant effect of dabigatran acylglucuronide in human plasma. Increasing concentrations of mouse antibody were added to human plasma that had been preincubated with 7 nM of dabigatran acylglucuronide or dabigatran. The assay was initiated by the addition of 0.4 U/mL of thrombin and clotting time was measured. 100% inhibition was defined as the complete block of the compound mediated increase in clotting time.
The major metabolic pathway of dabigatran in humans is through the glucuronidation of the carboxylate moiety. […] To test whether the mouse monoclonal antibody clone 22 could neutralize these metabolites, dabigatran acylglucuronides were purified from the urine of rhesus monkeys treated with dabigatran and evalulated in the thrombin clotting time assay. […] Thus the antibody is effective in blocking the anticoagulant activity of dabigatran metabolites found in humans.

B1: Clone 22: mouse monoclonal anti-dabigatran antibody, DBG 22 VH SEQ ID NO: 20, DBG 22 VK SEQ ID NO: 21 (antibody, listed as Mus musculus, V domains shown)
VH: QVQLEQSGPGLVAPSQRLSITCTVSGFSLTSYIVDWVRQSPGKGLEWLGVIWAGGSTNYNSALRSRLSITKSNSKSQVFLQMNSLQTDDTAIYYCASAAYYSYYNYDGFAYWGQGTLVTVSA
VL: DVVMTQTPLTLSVTIGQPASISCKSSQSLLYTNGKTYLYWLLQRPGQSPKRLIYLVSKLDSGVPDRFSGSGSGTDFTLKISRVEAEDVGIYYCLQSTHFPHTFGGGTKLEIK
reversal of dabigatran mediated prolongation of clotting time [1]: dose dependently inhibited the dabigatran mediated prolongation of clotting time
reversal of dabigatran mediated prolongation of clotting time ([1]; listed as clone 22): completely reversed the dabigatran-mediated prolongation of thrombin dependent clotting
reversal of dabigatran mediated prolongation of clotting time [2]: effectively inhibited dabigatran function
reversal of dabigatran acylglucuronide induced prolongation in clotting time [3]: dose dependently inhibited the dabigatran acylglucuronide induced prolongation in clotting time
